Here are results for one molecule from patent US20220049002A1 (KINDRED BIOSCIENCES, published 2022).

The target of assay [1] is T1, Canine IL4_C-His6 (processed) (canine, UniProt O77762 25-131, biotinylated in the blocking ELISA of Example 2).
T1 sequence: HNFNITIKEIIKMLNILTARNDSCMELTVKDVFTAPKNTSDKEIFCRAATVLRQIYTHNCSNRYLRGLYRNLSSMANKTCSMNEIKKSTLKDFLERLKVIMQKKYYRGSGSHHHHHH
The assay is described as follows: BLI (Octet): m4 on anti-human Fc tips, canine IL4_C-His6 50 ug/mL. On the procedure: (§1) Various binding analyses of Clone B, Clone I, canine IL4, and canine IL13 ligands to canine IL4R were performed using an Octet Biosensor. Canine IL4R-ECD_C-HuFc_His6 (SEQ ID NO: 109) was captured on anti-human Fc-bound sensor tips. The association of Clone B or Clone I antibody (25 μg/mL) and canine IL4R-ECD_C-HuFc_His6 was monitored for 600 seconds. The complex-bound tips were washed briefly and then exposed to canine IL4_C-His6 (SEQ ID NO: 127; 50 μg/mL) or canine IL13_C-His6 (SEQ ID NO: 157; 50 μg/mL) and monitored for 600 seconds.
(§2) The opposite binding assay was also performed. The association between canine IL4_C-His6 (SEQ ID NO: 127; 50 μg/mL) or canine IL13_C-His6 (SEQ ID NO: 157; 50 μg/mL) and canine IL4R-ECD_C-HuFc_His6 captured on anti-human Fc-bound sensor tips was monitored for 600 seconds. The complex-bound tips were washed briefly and then exposed to Clone B antibody (50 μg/mL) or Clone I antibody (50 μg/mL) and monitored for 600 seconds. Following IL4 and IL13 binding to IL4R (FIG. 3C and FIG. 3D, respectively), further association with Clone B or Clone I was observed.
A general note: BLI is a label-free optical method that tracks binding on a fibre tip over time.

Assay [2] concerns the target T2, Canine IL13_C-His6 (processed) (canine, UniProt Q9N0W9 19-131).
T2 sequence: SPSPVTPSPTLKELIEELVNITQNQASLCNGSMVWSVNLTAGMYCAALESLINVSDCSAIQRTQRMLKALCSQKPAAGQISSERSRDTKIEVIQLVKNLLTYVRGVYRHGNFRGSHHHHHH
Nature of the assay: BLI (Octet): m4 on anti-human Fc tips, canine IL13_C-His6 50 ug/mL. On the procedure:
as §1, §2

B1: Canine IL4R-ECD_C-HuFc_His6 (processed) (Fc fusion)
chain: GSVKVLHEPSCFSDYISTSVCQWKMDHPTNCSAELRLSYQLDFMGSENHTCVPENREDSVCVCSMPIDDAVEADVYQLDLWAGQQLLWSGSFQPSKHVKPRTPGNLTVHPNISHTWLLMWTNPYPTENHLHSELTYMVNVSNDNDPEDFKVYNVTYMGPTLRLAASTLKSGASYSARVRAWAQTYNSTWSDWSPSTTWLNYYEPGSENLYFQ[human IgG1 Fc and a few adjoining residues omitted]
In the case of B1, the binding result in assay [1] and in assay [2] was “binds” each time.
